Test results published in article PMC6919601, “Identification of Plasmodium dipeptidyl aminopeptidase allosteric inhibitors by high throughput screening” (PLoS ONE, 2019).
Out of some 110,000 compounds screened, about 230 (0.21%) showed an effect of 50% or more. This is one part of the list.

molecular target: DPAP1 (Plasmodium falciparum, UniProt Q8IIJ9); test: primary screen, percent inhibition; read by cleavage of a fluorogenic dipeptide substrate; higher = more effect of the substance; design: species or system P. falciparum D10 trophozoite lysates; single well
Sequence (Q8IIJ9 whole entry, looked up): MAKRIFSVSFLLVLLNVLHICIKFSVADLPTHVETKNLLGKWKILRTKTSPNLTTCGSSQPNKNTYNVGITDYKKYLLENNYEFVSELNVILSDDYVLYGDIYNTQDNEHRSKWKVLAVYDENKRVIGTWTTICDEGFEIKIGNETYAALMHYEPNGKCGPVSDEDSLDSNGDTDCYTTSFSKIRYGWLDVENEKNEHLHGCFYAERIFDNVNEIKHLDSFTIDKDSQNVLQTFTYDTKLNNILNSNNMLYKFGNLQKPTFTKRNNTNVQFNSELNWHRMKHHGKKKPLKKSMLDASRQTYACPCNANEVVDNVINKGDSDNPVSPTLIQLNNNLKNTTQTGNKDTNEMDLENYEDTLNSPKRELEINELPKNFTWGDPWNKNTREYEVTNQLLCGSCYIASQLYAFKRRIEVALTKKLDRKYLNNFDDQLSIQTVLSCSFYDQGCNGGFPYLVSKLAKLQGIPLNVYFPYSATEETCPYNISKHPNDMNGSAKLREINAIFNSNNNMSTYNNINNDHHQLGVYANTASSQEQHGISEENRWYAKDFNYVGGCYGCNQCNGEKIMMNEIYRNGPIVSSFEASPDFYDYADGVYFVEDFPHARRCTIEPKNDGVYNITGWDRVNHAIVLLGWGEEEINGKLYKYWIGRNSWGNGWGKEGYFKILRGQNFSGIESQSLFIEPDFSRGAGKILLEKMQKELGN
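Note: 30 min substrate incubation versus DMSO and 10 µM JCP410 controls.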

Point of comparison: O=C(c1ccc(Cl)c(Cl)c1)N1CCN(c2ccc(F)cc2)CC1, “% Inhibition @ 10 uM” value -6.59%. Against it:
- Cc1ccnc(NS(=O)(=O)c2c(C)cc(C)cc2C)c1 — higher, -1.42%
- Cc1ccsc1C1C=C(c2ccc(Br)cc2)Nc2nnnn21 (centres unmarked) — higher, -5.19%
- CC1CN(C2CCN(C)CC2)CC(C)O1 (centres unmarked) — lower, -9.34%
- Cc1cccc(C2=NN3C(=N)/C(=C\c4coc5ccccc5c4=O)C(=O)N=C3S2)c1 — higher, 2.74%
- COc1ccc(C2C(C#N)=C(C)N=C3CC(c4ccc(Cl)cc4)CC(O)=C32)cc1OC (centres unmarked) — higher, 1.01%
- CCOc1cc2c(cc1OCC)C1C(C(=O)NCc3ccc(F)cc3)c3ccccc3C(=O)N1CC2 (centres unmarked) — higher, -5.29%
- CCOc1ccc(CCNS(=O)(=O)c2ccc3nc(O)ccc3c2)cc1OCC — higher, -0.901%
- Cc1nc2nc(C)c(NS(=O)(=O)c3ccc(Cl)s3)c(O)n2n1 — higher, 1.49%
- COc1ccccc1OCC(=O)Nc1ccc(S(=O)(=O)Nc2ccc(C)cc2C)cc1 — higher, 2.49%
- Cc1ccc(NC(=O)Cn2ncc3c4ccccc4nc-3c2O)nc1 — higher, -1.96%
- CCC(C)NC(=O)CN1C(=O)c2ccccc2Sc2ncccc21 (centres unmarked) — higher, -4.46%
- COc1ccc(-c2cc(C(F)(F)F)n3nc(C(=O)N(C)Cc4cn(C)nc4C)c(Cl)c3n2)cc1 — higher, 0.64%
- COC(=O)C1(C)CC1(c1ccccc1)c1ccccc1 (centres unmarked) — higher, -0.0369%
- CC(=O)NC(C)(C)C1CC=C(C)/C(=N\O)C1 (centres unmarked) — lower, -7.55%
- COc1ccc(CNC(=O)c2cc(C(F)(F)F)nn2C)cc1OC — higher, -3.07%
- COc1cccc(-n2nnc3c(=O)n(CC(=O)NCC4CCCO4)cnc32)c1 (centres unmarked) — higher, 1.24%
- COc1cc(C2=NOC(C(=O)N3CCCCCC3)C2)cc(OC)c1OC (centres unmarked) — higher, 1.24%
- CC1=C(C#N)C(c2ccc(Br)cc2)C2=C(N1)c1ccccc1S2(=O)=O (centres unmarked) — higher, -1.98%
- COc1ccc(Nc2nn(-c3ccc(F)cc3)nc2C(C)=O)cn1 — higher, -5.33%
- O=C(NCC1CCCO1)c1ccc(N2C(=O)C3C4c5ccccc5C(c5ccccc54)C3C2=O)cc1 (centres unmarked) — higher, -0.992%
- CS(=O)(=O)N1CCN(c2ccc(NC(=O)c3cc4ccccc4o3)cc2)CC1 — higher, -6.02%
- COc1ccccc1CNC(=O)C1CCCN(c2nn3c(=O)cc(C)nc3s2)C1 (centres unmarked) — higher, 1.38%
- O=C(COc1ccccc1)NC1CC2CCC1C2 (centres unmarked) — higher, -2.28%
- Cc1oc2ccc(O)c(CN3CCCC(C)C3)c2c1C(=O)NC1CCCCC1 (centres unmarked) — higher, 3.74%
- Cc1nc(SCc2ccccc2)nc2ccccc12 — higher, -3.37%
- O=C1NC(c2ccc(F)cc2)C(C(=O)c2ccccc2)C(O)(C(F)(F)F)N1 (centres unmarked) — higher, 3.13%
- O=C(Cn1ncc2ccccc2c1=O)NC(c1ccccc1)c1ccccc1 — higher, -3.23%
- Cc1cc(Cl)cc(C)c1OCCCN1CCCC1 — lower, -8.99%
- CCC(=O)Nc1ccc(-c2cn3cccc(C)c3n2)cc1 — higher, 3.21%
- C=CCn1c(SCC(=O)Nc2ccc(NC(C)=O)cc2)nc2sc(-c3ccccc3)cc2c1=O — higher, -3.46%
- COc1ccc2nc(NS(=O)(=O)c3ccc(C)cc3)sc2c1 — higher, 1.84%
- COC(=O)CCC(=O)Nc1ccccc1Cl — higher, -2.51%
- O=C(C1=C(O)C(=O)N(CCc2c[nH]c3ccccc23)C1c1ccc(O)cc1)c1ccccc1 (centres unmarked) — higher, 2.27%
- CCc1cccc(C)c1NC(=O)CCCOc1ccccc1 — lower, -16.5%
- CCOC(=O)C1=C(O)c2ccccc2C1=O — higher, 4.89%
- CCNC(=O)/C(C#N)=C/c1c(Oc2ccc(C)cc2)nc2c(C)cccn2c1=O — higher, 2%
- Cc1cccc(NC(=O)CCc2ccc(S(=O)(=O)NC(C)c3ccccc3)cc2)c1 (centres unmarked) — higher, 3.29%
- COc1ccc(Br)cc1CN1CCC(O)CC1 — higher, 1.38%
- Cc1ccc(/C(O)=C/C=N/c2ccc(S(=O)(=O)N=C(N)N)cc2)cc1 — higher, -2.83%
- Cc1cc(Oc2nc3c(C)cccn3c(=O)c2/C=C(\C#N)C(=O)NC2CCCCC2)ccc1Cl — higher, -1.43%
- O=C(Nc1ccc2c(c1)OCCO2)Nc1ccccc1Cl — higher, 5.24%
- CCCCn1c(SCC(=O)NCCc2ccc(S(N)(=O)=O)cc2)nc2ccsc2c1=O — higher, -1.52%
- O=C(O)/C=C/S(=O)(=O)c1ccccc1 — higher, -0.778%
- OC1(C(O)(C#CCN2CCCCC2)c2ccccc2)CCCC1 (centres unmarked) — higher, 2.86%
- Cc1ccc(-c2ccc(=O)n(CC(=O)N3CCC(C)CC3)n2)cc1 — higher, 0.514%
- COc1ccc(C2N(c3cc(C)on3)C(=O)C3CCCN32)cc1OC (centres unmarked) — higher, -2.29%
- c1cncc(CN2CCSCC2)c1 — higher, -2.56%
- CCN(CC)C(=O)c1sc(NC(=O)c2cc(-c3ccc(C)o3)nc3ccccc23)c(C(N)=O)c1C — higher, 41.2%
- CC(C)(C)c1ccc(C2=NC3(CCN(C(=O)c4ccccc4F)CC3)NC2=O)cc1 — higher, 2.25%
- COc1ccc(C(=N)NOC(=O)c2ccccc2)cc1OC — higher, 3.79%
- c1ccc(CCn2c3ccccc3c3nnc(SCCN4CCOCC4)nc32)cc1 — higher, 3.86%
- O=C(O)C/N=c1\c([N+](=O)[O-])c(O)oc2ccccc12 — higher, -0.999%
- CC(=O)Nc1ccc(NC(=O)c2ccc(C3SCC(=O)N3Cc3ccccc3)cc2)cc1 (centres unmarked) — higher, 6.69%
- CCn1c(=S)[nH]c2c(c1=O)C1(CCCCC1)Cc1ccccc1-2 — higher, -3.09%
- CSc1ccc(C2C(C#N)=C(N)N(c3ccccc3)C3=C2C(=O)CCC3)cc1 (centres unmarked) — higher, -3.46%
- CCN1CCN(C(=O)c2ccc(Cn3c(SCc4cccc(C)c4)nc4ccncc43)cc2)CC1 — higher, -1.92%
- Cc1ccc(OCC(=O)NC2CC2)cc1C — higher, -6.41%
- COc1ccccc1[C@@H]1[C@@H](C(=O)c2ccccc2)N2c3ccccc3C=C[C@@H]2C1(C#N)C#N — lower, -7.74%
- C#CC(C)(CC)NC(=O)c1ccccc1C(=O)O (centres unmarked) — higher, -4.11%
- CC(C)(C)C1(C)O[C@@H](CO)[C@H](CO)O1 — lower, -8.51%
- CCOC(=O)c1c(-c2ccccc2)csc1NC(=O)c1cc(-c2ccccc2OC)on1 — higher, -1.28%
